In all, about 310,000 compounds went through this assay and about 14,000 (4.5%) showed an effect of 50% or more. Effects have a minus sign here. The list shows a part of the results.
What follows are compounds tested against human ether-à-go-go-related gene (hERG) potassium channel (human, UniProt Q12809) (assay: primary screen, population patch clamp on CHO cells stably expressing hERG).
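Note: peak tail current of the secondary pulse compared with the same well before compound.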

Sequence of human ether-à-go-go-related gene (hERG) potassium channel (Q12809 whole entry, looked up): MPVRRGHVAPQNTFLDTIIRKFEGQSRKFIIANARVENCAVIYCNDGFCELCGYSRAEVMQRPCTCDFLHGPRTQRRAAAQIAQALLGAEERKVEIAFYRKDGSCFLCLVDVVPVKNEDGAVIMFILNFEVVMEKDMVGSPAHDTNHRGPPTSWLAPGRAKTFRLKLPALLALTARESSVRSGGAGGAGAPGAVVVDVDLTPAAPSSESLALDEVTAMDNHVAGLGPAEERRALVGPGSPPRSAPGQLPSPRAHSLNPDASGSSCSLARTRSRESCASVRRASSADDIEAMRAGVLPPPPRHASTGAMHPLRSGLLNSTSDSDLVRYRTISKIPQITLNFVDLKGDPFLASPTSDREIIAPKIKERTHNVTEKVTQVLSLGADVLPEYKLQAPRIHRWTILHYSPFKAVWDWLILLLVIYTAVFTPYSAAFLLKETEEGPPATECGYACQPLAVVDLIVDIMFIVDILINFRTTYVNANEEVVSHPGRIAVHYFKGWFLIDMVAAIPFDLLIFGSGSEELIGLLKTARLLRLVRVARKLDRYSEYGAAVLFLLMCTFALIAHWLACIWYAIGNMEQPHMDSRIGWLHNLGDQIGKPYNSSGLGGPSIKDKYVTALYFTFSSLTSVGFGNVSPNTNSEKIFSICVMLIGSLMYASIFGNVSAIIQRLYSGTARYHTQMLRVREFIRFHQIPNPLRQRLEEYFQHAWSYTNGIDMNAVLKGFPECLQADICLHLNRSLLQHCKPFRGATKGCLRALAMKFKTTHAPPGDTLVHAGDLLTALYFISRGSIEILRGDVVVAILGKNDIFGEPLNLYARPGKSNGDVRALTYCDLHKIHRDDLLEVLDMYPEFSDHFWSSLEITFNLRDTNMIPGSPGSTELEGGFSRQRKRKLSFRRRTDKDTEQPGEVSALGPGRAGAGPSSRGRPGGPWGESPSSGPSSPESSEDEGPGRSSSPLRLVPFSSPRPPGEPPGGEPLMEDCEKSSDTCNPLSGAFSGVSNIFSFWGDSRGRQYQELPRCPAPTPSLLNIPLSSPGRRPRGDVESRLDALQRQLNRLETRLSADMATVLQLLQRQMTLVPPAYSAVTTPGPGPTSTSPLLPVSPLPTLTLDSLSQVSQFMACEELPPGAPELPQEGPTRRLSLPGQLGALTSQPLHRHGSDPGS

Structure (SMILES)	hERG current change (%, negative = inhibition) at 10uM
O=C(Nc1ccc(OC(F)(F)F)cc1)NC1CCC(Oc2ccc(C(=O)O)cc2)CC1 (stereo not shown)	-10%
COc1ccc(CN2C(=O)c3ccccc3C2=O)cc1C(=O)Nc1ccc(C)cc1C	4.22%
Cc1ccc(-n2c(C)nn(Cc3ccc([N+](=O)[O-])cc3)c2=O)cc1	-7.12%
CC1CC(C)CN(C(=O)c2cc3ccccc3o2)C1 (stereo not shown)	-2.2%
O=C(c1cc(-c2ccccc2)on1)N1CCc2ccccc2C1	24.4%
Cc1ccc2c(c1)N(CC(=O)NC1CCCCCC1)C(=O)c1cccnc1O2	-0.961%
COCC(=O)N1CCc2ccc(NC(=O)c3ccccc3Cl)cc2C1	8.61%
CCCc1cc(C(=O)Nc2cc(Cl)ccc2O)no1	6.97%
CCOC(=O)CCCCCN(Cc1ccccc1)S(=O)(=O)c1ccc([N+](=O)[O-])cc1	-30.8%
Cc1csc(NC(=O)C(C)Oc2ccc(Br)cc2)n1 (stereo not shown)	-42.3%
CCC(C)Sc1nc2c(cnn2-c2ccccc2)c(=O)[nH]1 (stereo not shown)	4.27%
COc1ccc(C)cc1S(=O)(=O)N1CCN(C/C=C/c2ccccc2)CC1	-23.8%
Cc1ccc(NC(=O)C2CCCN2S(=O)(=O)c2ccc(F)cc2)c(C)c1 (stereo not shown)	-8.08%
NNC(=O)c1ccc(COCC(F)(F)C(F)F)cc1	14.5%
CC(=O)N1CCN(C(=O)COC(=O)COc2ccc(C#N)cc2)CC1	4.54%
CCCCC(=O)Nc1ccc(F)c(Cl)c1	-0.287%
O=C(CNc1ccccc1)N/N=C/c1cc([N+](=O)[O-])ccc1N1CCCC1	4.85%
O=C(CSc1ncc(C(F)(F)F)cc1Cl)NCC1CCCO1 (stereo not shown)	9.64%
CCCNC(=O)Cn1nc(C(F)(F)F)cc1C	-20.3%
CCOc1ccccc1CNC(=O)c1cc2occc2n1C	3.12%

Structure (SMILES)	hERG current change (%, negative = inhibition) at 10uM
CC(=O)/C(=C\N(C)C)Sc1ccc(Cl)cc1	-1.31%
CCOC(=O)N1CCN(c2nc(-c3cccs3)cc(C(F)(F)F)n2)CC1	20.6%
O=C(N/N=C\C1C(=O)NC(=S)N(c2ccccc2)C1=O)c1ccc(O)cc1 (stereo not shown)	19.4%
CCOCCn1c(=O)c2c(nc3n2CCCN3CCc2ccccc2)n(C)c1=O	-22.8%
CCOC(=O)c1c(C)[nH]c(NC(=O)NNC(=O)c2ccc(OC)cc2)c1C	0.184%
O=C(O)CCCC(=O)Nc1ccc(OCc2nc3ccccc3s2)cc1	15.1%
Clc1cccc(N2CCN(c3nnnn3-c3ccccc3)CC2)c1	-28.9%
CCc1nc(CNC(=O)C2CCC(=O)N(Cc3cccc(OC)c3)C2)no1 (stereo not shown)	17.8%
Cc1ccc(NC(=S)Nc2ccc3[nH]c(=O)[nH]c3c2)cc1	11.4%
CCOC(=O)C1CCN(CC(=O)N2CCc3ccccc32)CC1	-25.4%
NS(=O)(=O)c1ccc(N/N=C/c2ccccc2C(=O)O)c([N+](=O)[O-])c1	2.22%
CCSc1nnc(C)c2ccccc12	12.9%
Cc1onc(-c2ccccc2)c1C(=O)N1CCN(S(=O)(=O)c2ccc3c(c2)OCCO3)CC1	-17.2%
O=C(CN1CCOCC1)c1cccc2ccccc12.O=C(O)C(=O)O	5.8%
CC(C)C(NC(=O)c1ccccc1NC(=O)c1ccco1)C(=O)O (stereo not shown)	-14.1%
COc1cc2c(cc1OC)CN(CCC(=O)c1ccc(Br)cc1)CC2	-66.9%
CCOc1ccc(NC(=O)C2CCN(C(=O)NC3CCCCC3)CC2)cc1	9.67%
CC1(C)CC(=O)C=C(NC2CCCCCCC2)C1	-11.9%
COc1ccc(Nc2nc(N3CCOCC3)nc(N3CCOCC3)n2)cc1	11.7%
O=C(O)c1ccccc1C(=O)c1ccc(Sc2ccc(Cl)cc2)c([N+](=O)[O-])c1	6.94%

Structure (SMILES)	hERG current change (%, negative = inhibition) at 10uM
Cc1ccc2sc(NNC(=O)c3ccc4c(c3)OCCO4)nc2c1C	4.4%
COC(=O)c1c(NC(=O)COC(=O)c2ccc(NC(=O)CC#N)cc2)sc2c1CCCCC2	17.6%
COc1cccc(N2C(=O)N(c3ccccc3)C3CS(=O)(=O)CC32)c1 (stereo not shown)	-8.69%
N#C/C(=C/c1ccncc1)c1nc2ccccc2c(=O)[nH]1	1.82%
CCN(CC)S(=O)(=O)c1ccc(N2CCc3ccccc3C2)nc1	0.99%
CCCCNC(=O)NC(C(=O)OC)C12CC3CC(CC(C3)C1)C2 (stereo not shown)	-21.7%
C[C@H](NC(=O)c1ccc(Cl)cc1)C(=O)NNC(=O)c1cccs1	12.2%
OCCN1CCN(Cc2cc(Cl)c3cccnc3c2O)CC1	16.6%
Cc1cc(C)nc(SCC(=O)N/N=C/c2cccs2)n1	4.66%
CCCN(CCC)S(=O)(=O)c1ccc(C(=O)Nc2c(C)n(C)n(-c3ccccc3)c2=O)cc1	6.2%
Cc1ccc(S(=O)(=O)NCCCC(=O)O)cc1	15.7%
O=C(OCC(=O)c1ccc(Cl)cc1Cl)c1cnccn1	-58.3%
CC(C)O.Cc1ccc(-c2cc(C(=O)O)n(-c3ccc(S(N)(=O)=O)cc3)n2)cc1	21.6%
COc1ccc(CCNCc2c(-c3ccccc3)n(C)c3ccccc23)cc1.O=C(O)C(=O)O	-52.3%
COc1ccc(Cl)cc1S(=O)(=O)NCc1ccncc1	4.02%
OCC(CO)(CO)N=Cc1c(O)ccc2ccccc12	-0.63%
O=C(Nc1ccccc1F)NC1CCCCCCC1	1.46%
COc1ccccc1C(=O)Nc1nc(-c2ccc3c(c2)OCCO3)cs1	7.44%

— paper PMC4336329 (PLoS ONE, 2015)
